Data: publication PMC12136788
This is one part of the list.

B1: chr1:184691659:184691688:-|3pUTR|ENSG00000116406|msi1_unk|total|mutant (ssRNA)
RNA: GGGAGUUCUACAGUCCGACGAUCCUCCAACGUUGUAAUUACAACUCUACAUUCAUUUACUUACUUGACAUACUGCCACAAAGCCGUUUUUGAGUUCAUUAAAAAUUCCAAAGGCAUCCGUUGUUUUUUUUUUUUUCCGUGUUUCAACAGAGGAUUGAGCAUCA
B2: chr7:66152395:66152486:+|3pUTR|ENSG00000241258|msi1_unk|FALSE|overlapping (ssRNA)
RNA: GGGAGUUCUACAGUCCGACGAUCCGUUGAGAGGAUUGUUUAUUUGAUUUUUAUCCUCAUCCCAGCAGGCCUGGCUUUGUGGUUAGUUGGGUACAUCACAAAAAUAAGUUAAAAAGAAAUAUUUGUGCCUUGGGGAGAAGAAACCAACAGAGGAUUGAGCAUCA
B3: chr18:67512643:67512744:-|CDS|ENSG00000171451|unk|FALSE|bound_elsewhere (ssRNA)
RNA: GGGAGUUCUACAGUCCGACGAUCGCCAUGAUGGAUGUGUGGGAUGCACAUUACAAAAUGUUUUGGUUUGAUCAUCAUGGCAAUAGUCCCAUGGCCAGUAUACAGGAAGCAGAGCAAGCUGCUGAAUUUAAAAAACGAUGGACUCAACAGAGGAUUGAGCAUCA
B4: chr14:51255895:51255996:+|3pUTR|ENSG00000139921|msi1_unk|total|mutant (ssRNA)
RNA: GGGAGUUCUACAGUCCGACGAUCGUGAAUCCAUCCGAUUUACAGUAUCGUAAUAUACAAGUUUUCUUUAAAGCCCUCUCCUUCCGAAUUUAAAAUAUUGUACCAUUGAAGAGUUUGGAUGUGUAACUUGUGAUGCCUCCGAAACAACAGAGGAUUGAGCAUCA
B5: chr16:2586768:2586869:+|CDS|ENSG00000140992|unk|FALSE|bound_elsewhere (ssRNA)
RNA: GGGAGUUCUACAGUCCGACGAUCCUCCUCACACUCCCUGUCAGCCUCCGACACGGGCCUGCCCCAGAGGUCAGGCAGCAACAUAGAGCAGUACAUUCACGAUCUGGACUCGAACUCCUUUGAACUGGACUUACAGUUUUCCGACAACAGAGGAUUGAGCAUCA
B6: chr17:51192749:51193016:-|CDS|ENSG00000011258|control|control|control (ssRNA)
RNA: GGGAGUUCUACAGUCCGACGAUCUGGAUGGGAAGAAGAGUAUGAUCAGUGGGUAGACUGUGAGUCACCUGACCUCUAUCCUGUAGGGUGGUGUCAGUUAACUGGAUAUCAACUACAGCCUCCAGCAUCACAGUGUAAGUUGGUCAACAGAGGAUUGAGCAUCA
B7: chr7:151349087:151349194:+|CDS|ENSG00000013374|unk|FALSE|unique (ssRNA)
RNA: GGGAGUUCUACAGUCCGACGAUCCCUUGCUAAGCAGUACUCUGACAGACUAGAAUGCUGUGAAAAUGAAGUAGAAAAGGUAAUAGAAGAAAUACGUUGCAAGGCAAUUGAGCGUGGAACAGGAAAUGACAAUUAUAGAACAACCAACAGAGGAUUGAGCAUCA
B8: chr6:158785413:158785514:-|CDS|ENSG00000092820|msi1|FALSE|unique (ssRNA)
RNA: GGGAGUUCUACAGUCCGACGAUCGAGCUCAUCCAGGACAUCACCCAGAAACUUUUCUUCCUCCAAGUGAAGGAAGGAAUCCUUAGCGAUGAGAUCUACUGCCCCCCUGAGACUGCCGUGCUCUUGGGGUCCUACGCUGUGCAGCAACAGAGGAUUGAGCAUCA
B9: chr4:15962460:15963129:-|CDS|ENSG00000137441|control|control|control (ssRNA)
RNA: GGGAGUUCUACAGUCCGACGAUCAAUCAAGCCCUGCAGGAGCUGAGGCGCCUUCACCAUGCGUGCCAGGGGGCCCCGGUGCUUAGGCCAUCCGUGUGCAGGGAGGCUGGACCCCAGGCCCAUAUGCAGCAGGUGACUUCCAGCCAACAGAGGAUUGAGCAUCA
B10: chr1:42926584:42926685:-|3pUTR|ENSG00000117394|msi1|FALSE|unique (ssRNA)
RNA: GGGAGUUCUACAGUCCGACGAUCGCCUGAGGGUGGAGACUAAGCCCUGUCGAGACACUUGCCUUCUUCACCCAGCUAAUCUGUAGGGCUGGACCUAUGUCCUAAGGACACACUAAUCGAACUAUGAACUACAAAGCUUCUAUCCAACAGAGGAUUGAGCAUCA
B11: chr9:128390415:128390516:+|3pUTR|ENSG00000167118|msi1|total|mutant (ssRNA)
RNA: GGGAGUUCUACAGUCCGACGAUCCUUACAGCUCAUUCUGCUGGGGGCCGAGAUGAGGGGAGGGAGUAAGUUAAACCUUGGACCCGCAAGCCGAAGCCUGGGGGGAUGCGUGUGCCUCAGUUUCCUCCUCCACAACUGAAUAUACAACAGAGGAUUGAGCAUCA
B12: chr17:35009752:35009853:-|3pUTR|ENSG00000092871|msi1|FALSE|unique (ssRNA)
RNA: GGGAGUUCUACAGUCCGACGAUCAUUCAGCUACUCAGUUCCUCUGUAAAACAGGUCUAUGUAUGUGCAAUUCAGCUAAGAUCUAGCAGUAACUUAAGGGCAGAAGCUGGCUCUCUACUUACAACCUGCUUUCUCUGCUGAAGCCAACAGAGGAUUGAGCAUCA
B13: chr15:93024873:93024975:+|3pUTR|ENSG00000173575|unk|total|mutant (ssRNA)
RNA: GGGAGUUCUACAGUCCGACGAUCGGUCCAGCUCUGAUUCGGGUCACCACUCCUGCACUUUGGCACCCCAUCCCAUUCCAGCCCCGUUCUGGCCUCCCACUUUGACGGGCACUUGGAGGAGGAGCUGACUGUGUGUGUACCAGCCAACAGAGGAUUGAGCAUCA
B14: chr10:26980575:26980839:-|three_prime_utr|ENSG00000107890|control|control|control (ssRNA)
RNA: GGGAGUUCUACAGUCCGACGAUCGCUUACUCCGACCUCUCUGAACUUCCUGGACCAGAUCUGUUUCCUCUGCCUGCAUGCUCUAGCCUACCAUCUUCCUCUCCUUGUCUGCUACUCACUCAACAGAAGGCAACAGGGUGGUCUCAACAGAGGAUUGAGCAUCA
B15: chr2:176131361:176131462:+|CDS|ENSG00000175879|unk|FALSE|unique (ssRNA)
RNA: GGGAGUUCUACAGUCCGACGAUCGGAAUUUCUUUUUAACCCCUAUCUGACCAGGAAAAGAAGAAUCGAGGUUUCCCACGCCCUAGCCCUCACCGAGAGACAGGUAAAAAUCUGGUUCCAGAACAGGAGAAUGAAAUGGAAAAACAACAGAGGAUUGAGCAUCA
B16: chr3:120396629:120396730:-|3pUTR|ENSG00000163430|msi1|total|mutant (ssRNA)
RNA: GGGAGUUCUACAGUCCGACGAUCGCCUUCAUUUCCCGGAGUGCUUUAAGAGAAACUGUAAAUGGUGCUCUGGGGCUGGAGGCCCGUAAGGAAACUGCAUCACGAUUGAAAGAGGAACAGACCCAAAUCUGAACCUCUUUUGAGCAACAGAGGAUUGAGCAUCA
B17: chr10:63214216:63214317:-|CDS|ENSG00000171988|unk|total|mutant (ssRNA)
RNA: GGGAGUUCUACAGUCCGACGAUCUAAGCUGCAUAAGCGAAGUCCACCUCCAGAGACUAUAAAAUCUAAACUUAAUACUUCAGCCGAUACUCACAAGAUAAAAUCCAGCCCAUCACCUGAAGUUGUUAAACCCAAAAUAACUCACAACAGAGGAUUGAGCAUCA
B18: chr8:23842656:23842757:-|3pUTR|ENSG00000159167|msi1|total|mutant (ssRNA)
RNA: GGGAGUUCUACAGUCCGACGAUCCCCCAAACUUAUGGACACUGCCUCCGCCUCUUGGAAAUCAGGCCGACCAUAUUCUAAGUCCGACUCUUCCCCUCCCUCCCACACUUCCCACCCCCAGGCAAGGCUGACUUCUCUGAAUCACAACAGAGGAUUGAGCAUCA
B19: ENSG00000013374:stop:overlap|stop_codon|ENSG00000013374|stop_codon|NA|stop_codon (ssRNA)
RNA: GGGAGUUCUACAGUCCGACGAUCAAAGAAAAGAAUAUGGAAUAGCCUUGCCAUGUCUGUUGGACGCUGACAAAUAUUUCUGGUAGGCGCUUUUGUACUUGGUGAACACCAGCUUUAAGGAAGAUGGCCCAGACUAUACAGAACCAACAGAGGAUUGAGCAUCA
B20: chr15:93027272:93027374:+|3pUTR|ENSG00000173575|unk|total|mutant (ssRNA)
RNA: GGGAGUUCUACAGUCCGACGAUCCCAGGAAUCUGUGAGGAUGGUAUUCCCUGGAGUCUGGCUUUGAAAGAUUUCAUUGUUGGCCGAAAUAACAGGUUGAGAAAGAGGGAGUCCGCAUCACCUAAAACCUGCACGUGAACAAGGCAACAGAGGAUUGAGCAUCA
B21: chr5:136975339:136975545:-|3pUTR|ENSG00000152377|msi1|total|mutant (ssRNA)
RNA: GGGAGUUCUACAGUCCGACGAUCAGAGCCCAUCAAAUCCUGAGUGUCAGUUUGUUGUCCCUAUUGCCGAUGAAACCGUGAUGCCGCAAAAACCCCGUAAAUUCUGAAUGCUUUUCCACGCCGACUUAUCUGGAAUGUGAACACCAACAGAGGAUUGAGCAUCA
B22: chr17:58090057:58090109:+|3pUTR|ENSG00000264364|msi1_unk|total|mutant (ssRNA)
RNA: GGGAGUUCUACAGUCCGACGAUCGGGCCGGAUCCGCUUGAAUCUUUUUUUUCUUUACAUUUUUCUCCUGUCUGCUCCCUGCUCCGCCCUCAGUUUCCUCAUUCCUCUGGAGUUCUCUCCGAGCAGCCCCUGUUGUCCGUUGGCCAACAGAGGAUUGAGCAUCA

What follows are binders tested against MSI1 full-length (mouse, UniProt Q61474 1-362) (assay: nsRBNS (natural sequence RNA bind-n-seq); RBNS binding buffer (assumed for nsRBNS): 25 mM Tris pH 7.5, 150 mM KCl, 3 mM MgCl2, 0.01% Triton X-100, 500 ug/ml BSA, 20 U/ml SUPERase-In, 4 C; UNK is unkempt and MSI1 is Musashi-1; names of the RNAs are library labels; protein concentration not given here; high values mean tight binding).
Sequence of UniProt Q61474 (Q61474 whole entry): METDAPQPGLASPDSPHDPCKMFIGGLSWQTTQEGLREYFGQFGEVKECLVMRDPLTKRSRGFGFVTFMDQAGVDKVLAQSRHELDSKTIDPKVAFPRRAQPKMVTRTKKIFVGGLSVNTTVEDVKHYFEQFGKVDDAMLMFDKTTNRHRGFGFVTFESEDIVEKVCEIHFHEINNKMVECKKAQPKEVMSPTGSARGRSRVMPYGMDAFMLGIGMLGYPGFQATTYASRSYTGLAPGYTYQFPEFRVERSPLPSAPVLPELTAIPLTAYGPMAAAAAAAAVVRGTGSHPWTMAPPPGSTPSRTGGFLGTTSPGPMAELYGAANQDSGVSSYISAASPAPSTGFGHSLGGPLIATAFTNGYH

| Binder | binding signal |
| --- | --- |
| B1 | 0.638 enrichment R |
| B2 | 0.782 enrichment R |
| B3 | 0.328 enrichment R |
| B4 | 0.489 enrichment R |
| B5 | 0.781 enrichment R |
| B6 | 0.441 enrichment R |
| B7 | 10.7 enrichment R |
| B8 | 0.366 enrichment R |
| B9 | 0.447 enrichment R |
| B10 | 0.514 enrichment R |
| B11 | 0.592 enrichment R |
| B12 | 0.831 enrichment R |
| B13 | 1.32 enrichment R |
| B14 | 0.694 enrichment R |
| B15 | 0.392 enrichment R |
| B16 | 0.241 enrichment R |
| B17 | 0.493 enrichment R |
| B18 | 0.838 enrichment R |
| B19 | 5.09 enrichment R |
| B20 | 0.321 enrichment R |
| B21 | 0.375 enrichment R |
| B22 | 0.767 enrichment R |
